According to PMC6750928:
These are yes or no findings as the source states them, for the method shown. In cells and extracts the contact can be indirect. Some entries that bind do so weakly or less than the wild type. For part of these data: Where a sequence is shown, tags or fusion partners need not be part of it. One block for each molecule: values may come before it.

The chains behind the UniProt entries cited, without tags or fusion partners. Residues count along the entry.
UniProt P41586, residues 24-468: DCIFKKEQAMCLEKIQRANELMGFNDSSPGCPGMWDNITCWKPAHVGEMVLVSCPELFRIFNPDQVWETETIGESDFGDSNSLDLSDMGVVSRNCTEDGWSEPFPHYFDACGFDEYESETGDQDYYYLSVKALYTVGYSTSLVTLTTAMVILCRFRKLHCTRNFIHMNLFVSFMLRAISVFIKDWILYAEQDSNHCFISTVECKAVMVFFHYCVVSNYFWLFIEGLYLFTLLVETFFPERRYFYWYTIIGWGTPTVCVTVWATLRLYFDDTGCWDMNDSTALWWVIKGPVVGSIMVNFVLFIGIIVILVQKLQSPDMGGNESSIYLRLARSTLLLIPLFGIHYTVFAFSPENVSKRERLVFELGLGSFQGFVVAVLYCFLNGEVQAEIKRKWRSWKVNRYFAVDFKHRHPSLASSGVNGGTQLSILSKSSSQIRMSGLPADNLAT
UniProt O60895, residues 43-175: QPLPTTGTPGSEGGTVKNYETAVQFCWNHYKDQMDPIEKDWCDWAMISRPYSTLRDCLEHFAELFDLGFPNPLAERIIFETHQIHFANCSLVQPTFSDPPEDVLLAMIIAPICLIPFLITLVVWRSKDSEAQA
UniProt O60894, residues 27-148: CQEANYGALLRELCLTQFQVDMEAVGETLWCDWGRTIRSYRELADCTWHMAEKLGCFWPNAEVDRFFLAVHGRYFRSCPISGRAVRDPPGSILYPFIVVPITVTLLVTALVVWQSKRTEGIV

Assays:
Assay in all cases: co-IP; multiplexed suspension bead array (SBA) immunoassay: clarified lysates (1% DM; 50 mM Hepes, 1 mM EDTA, 150 mM NaCl, 5 mM MgCl2, pH 7.4) of HEK293F cells cotransfected with tagged GPCR and RAMP, diluted to 50 ug/ml, incubated overnight at 4°C with bar-coded beads carrying anti-tag (HA, 1D4, FLAG, OLLAS), anti-GPCR or anti-RAMP Abs; the partner detected with a PE-conjugated anti-tag mAb; Luminex FlexMap 3D, MFI
[1] = biological target: Pituitary adenylate cyclase-activating polypeptide type 1 (human) (UniProt P41586)
[2] = biological target: T1, Glucagon-like receptor 2 (human) (UniProt O95838)
T1 sequence: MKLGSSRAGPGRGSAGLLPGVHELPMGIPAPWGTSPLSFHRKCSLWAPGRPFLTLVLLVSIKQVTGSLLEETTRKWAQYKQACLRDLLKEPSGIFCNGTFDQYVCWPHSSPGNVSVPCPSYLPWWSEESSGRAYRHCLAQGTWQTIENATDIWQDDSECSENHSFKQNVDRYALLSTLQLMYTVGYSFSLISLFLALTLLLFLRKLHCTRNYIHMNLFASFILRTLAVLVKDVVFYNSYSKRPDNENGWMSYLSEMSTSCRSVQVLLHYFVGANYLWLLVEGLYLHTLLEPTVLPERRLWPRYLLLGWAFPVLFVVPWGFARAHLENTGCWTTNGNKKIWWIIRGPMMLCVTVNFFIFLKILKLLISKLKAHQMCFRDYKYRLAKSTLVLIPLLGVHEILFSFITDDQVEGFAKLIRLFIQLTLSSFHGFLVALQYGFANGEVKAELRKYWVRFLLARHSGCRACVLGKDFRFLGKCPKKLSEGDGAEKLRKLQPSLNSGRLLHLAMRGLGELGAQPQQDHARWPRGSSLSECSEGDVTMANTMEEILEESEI

[3] = biological target: T2, Gastric inhibitory polypeptide receptor (human) (UniProt P48546)
T2 sequence: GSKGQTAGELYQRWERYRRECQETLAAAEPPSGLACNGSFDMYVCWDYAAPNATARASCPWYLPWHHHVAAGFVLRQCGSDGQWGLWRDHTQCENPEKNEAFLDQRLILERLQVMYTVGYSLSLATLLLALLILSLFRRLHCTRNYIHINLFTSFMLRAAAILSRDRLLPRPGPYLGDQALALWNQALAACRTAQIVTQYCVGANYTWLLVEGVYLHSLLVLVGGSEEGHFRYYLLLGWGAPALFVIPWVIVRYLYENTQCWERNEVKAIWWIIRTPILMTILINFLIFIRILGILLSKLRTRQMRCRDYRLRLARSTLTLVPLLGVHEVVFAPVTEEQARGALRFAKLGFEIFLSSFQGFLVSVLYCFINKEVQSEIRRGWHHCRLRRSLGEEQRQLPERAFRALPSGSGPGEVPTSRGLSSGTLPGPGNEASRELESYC

[4] = biological target: T3, VIP and PACAP receptor 1 (human) (UniProt P32241)
T3 sequence: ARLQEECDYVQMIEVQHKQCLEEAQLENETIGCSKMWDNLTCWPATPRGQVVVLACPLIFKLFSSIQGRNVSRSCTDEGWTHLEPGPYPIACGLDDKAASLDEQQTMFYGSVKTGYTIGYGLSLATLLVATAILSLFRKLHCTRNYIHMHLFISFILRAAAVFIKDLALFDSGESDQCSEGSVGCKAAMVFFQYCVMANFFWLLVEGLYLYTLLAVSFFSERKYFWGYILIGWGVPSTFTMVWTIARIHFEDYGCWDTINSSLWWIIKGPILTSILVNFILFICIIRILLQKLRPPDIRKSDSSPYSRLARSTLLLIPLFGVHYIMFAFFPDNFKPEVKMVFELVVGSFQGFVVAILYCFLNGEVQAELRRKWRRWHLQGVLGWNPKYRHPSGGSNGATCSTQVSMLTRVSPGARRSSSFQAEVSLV

[5] = biological target: T4, VIP and PACAP receptor 2 (human) (UniProt P41587)
T4 sequence: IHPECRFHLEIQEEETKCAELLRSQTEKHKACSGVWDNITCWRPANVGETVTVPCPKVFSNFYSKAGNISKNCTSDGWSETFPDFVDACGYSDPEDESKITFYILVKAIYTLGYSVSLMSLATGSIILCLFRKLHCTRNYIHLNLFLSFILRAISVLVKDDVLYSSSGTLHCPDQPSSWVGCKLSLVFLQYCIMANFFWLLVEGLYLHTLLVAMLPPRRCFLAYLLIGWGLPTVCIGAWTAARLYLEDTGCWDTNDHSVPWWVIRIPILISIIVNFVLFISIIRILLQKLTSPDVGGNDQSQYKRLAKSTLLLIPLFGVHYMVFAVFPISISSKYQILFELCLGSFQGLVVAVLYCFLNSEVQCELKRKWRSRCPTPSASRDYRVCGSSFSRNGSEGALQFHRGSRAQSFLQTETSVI

binding [1]: binds
binding [2]: binds
binding [3]: binds
binding [4]: binds
binding [5]: binds
Molecule: Receptor activity-modifying protein 2 (from UniProt O60895 43-175)

binding [1]: binds
binding [2]: binds
binding [3]: binds
binding [4]: no binding
binding [5]: binds
Molecule: Receptor activity-modifying protein 1 (from UniProt O60894 27-148)

binding [1]: binds
binding [2]: binds
binding [3]: binds
binding [4]: binds
binding [5]: binds
B1: Receptor activity-modifying protein 3 (protein, UniProt O60896 28-148)
chain: CNETGMLERLPLCGKAFADMMGKVDVWKWCNLSEFIVYYESFTNCTEMEANVVGCYWPNPLAQGFITGIHRQFFSNCTVDRVHLEDPPDEVLIPLIVIPVVLTVAMAGLVVWRSKRTDTLL
